{"source": "paper PMC10668032", "note": "The other results are listed elsewhere or left out. At the low end of the ranking the order means little.", "data": [{"molecular_target": "SIX1 homeodomain (reference allele) (UniProt Q15475)", "assay": "universal protein binding microarray", "conditions": "Universal all-10-mer PBM (8x60K, AMADID 030236), 300 nM GST-tagged protein, Alexa Fluor 488 anti-GST; buffer, salt, pH and temperature not stated; high values mean tight binding; most listed sequences are background and not binding sites; double strand, one strand shown", "units": {"binding signal": "E-score"}, "values": [{"sequence": "CACGTTTA", "binding signal": -0.163}, {"sequence": "AGGTGTTG", "binding signal": 0.236}, {"sequence": "ATAACACG", "binding signal": 0.0214}, {"sequence": "TAACTCCA", "binding signal": -0.162}, {"sequence": "CTGAGCAG", "binding signal": -0.00301}, {"sequence": "GAATTCGA", "binding signal": -0.088}, {"sequence": "TAACCACA", "binding signal": -0.162}, {"sequence": "AGTCCTCC", "binding signal": -0.183}, {"sequence": "ACAACTCA", "binding signal": -0.00655}, {"sequence": "ATGAGCCA", "binding signal": 0.173}, {"sequence": "ACTCGAGC", "binding signal": -0.103}, {"sequence": "ACAGGCAC", "binding signal": -0.208}, {"sequence": "CAAACTAA", "binding signal": -0.0314}, {"sequence": "CCTACTGC", "binding signal": -0.195}, {"sequence": "GCTTCCTA", "binding signal": -0.129}, {"sequence": "ATATTGAG", "binding signal": 0.0845}, {"sequence": "ATAGACCC", "binding signal": 0.033}, {"sequence": "CCAAATTA", "binding signal": -0.109}, {"sequence": "ATTCGTCC", "binding signal": -0.0292}, {"sequence": "GGCTACCA", "binding signal": 0.0377}, {"sequence": "CCTCCTAA", "binding signal": -0.124}, {"sequence": "GCACTCCC", "binding signal": -0.149}, {"sequence": "AAACTCTG", "binding signal": -0.237}, {"sequence": "CTTCCATA", "binding signal": -0.165}, {"sequence": "ACTGGTGA", "binding signal": -0.077}, {"sequence": "CGATTAAA", "binding signal": 0.156}, {"sequence": "ACATGCCA", "binding signal": -0.213}, {"sequence": "ATTAATGC", "binding signal": 0.0182}, {"sequence": "AGGGACCG", "binding signal": -0.0883}, {"sequence": "GGGCATAA", "binding signal": -0.047}, {"sequence": "CTTCGAAA", "binding signal": -0.23}, {"sequence": "ATTCGCAG", "binding signal": -0.146}, {"sequence": "TTGAGCAA", "binding signal": -0.22}, {"sequence": "CATTCGGA", "binding signal": 0.109}, {"sequence": "ACGCCTTG", "binding signal": -0.124}, {"sequence": "CCCTATCC", "binding signal": 0.359}, {"sequence": "CACCCAGC", "binding signal": -0.121}, {"sequence": "GCTACCAC", "binding signal": -0.183}, {"sequence": "AGGCAATG", "binding signal": 0.00178}, {"sequence": "CTAAGTAC", "binding signal": -0.0688}, {"sequence": "CGAATGCG", "binding signal": -0.0164}, {"sequence": "ACAGTGAG", "binding signal": -0.0157}, {"sequence": "GGAGTCCC", "binding signal": -0.129}, {"sequence": "CAATCACC", "binding signal": -0.0948}, {"sequence": "GTATCCCA", "binding signal": 0.388}, {"sequence": "ACTGTCCG", "binding signal": -0.223}, {"sequence": "CACTACCC", "binding signal": 0.09}, {"sequence": "CAGGGATA", "binding signal": 0.328}, {"sequence": "CCGAAGAC", "binding signal": 0.03}, {"sequence": "ACATTGGC", "binding signal": -0.255}, {"sequence": "CCTCCTCG", "binding signal": 0.036}, {"sequence": "AGGCCCAG", "binding signal": -0.272}, {"sequence": "TGAACAAA", "binding signal": -0.18}, {"sequence": "AAGACATC", "binding signal": -0.159}, {"sequence": "CCGGAGAG", "binding signal": -0.066}, {"sequence": "TCTTAAGA", "binding signal": -0.0679}, {"sequence": "CCTCCCGA", "binding signal": -0.0516}, {"sequence": "CTGTATAC", "binding signal": 0.338}, {"sequence": "CGGGCCAA", "binding signal": -0.0721}, {"sequence": "CGGATTAA", "binding signal": 0.351}, {"sequence": "AGGGGGCA", "binding signal": -0.138}, {"sequence": "AAGCACGC", "binding signal": -0.273}, {"sequence": "GAGTAGAC", "binding signal": 0.214}, {"sequence": "CTGTGAAA", "binding signal": -0.044}, {"sequence": "CGTGTGGC", "binding signal": -0.167}, {"sequence": "CTTATTTC", "binding signal": -0.161}, {"sequence": "CTTTCCCA", "binding signal": -0.0878}, {"sequence": "CAGAAGCC", "binding signal": -0.134}, {"sequence": "GTCCCGAA", "binding signal": -0.307}, {"sequence": "CATACTCA", "binding signal": 0.152}, {"sequence": "ACAAGGGC", "binding signal": -0.266}, {"sequence": "TAATATCA", "binding signal": 0.34}, {"sequence": "AACATTCG", "binding signal": -0.127}, {"sequence": "ATCCTCTA", "binding signal": 0.244}, {"sequence": "CCCTCGTA", "binding signal": 0.132}, {"sequence": "AAGAAAAG", "binding signal": -0.254}, {"sequence": "CGCTCCGA", "binding signal": 0.0143}, {"sequence": "CTAGTCGA", "binding signal": -0.0544}, {"sequence": "AACGGTAT", "binding signal": 0.234}, {"sequence": "AATTCGAT", "binding signal": -0.00161}, {"sequence": "CATGCCCG", "binding signal": -0.105}, {"sequence": "CCGTGGGC", "binding signal": -0.129}, {"sequence": "ACACAGGT", "binding signal": 0.018}, {"sequence": "AGGTTCGC", "binding signal": -0.143}, {"sequence": "TCAGTGAA", "binding signal": -0.00662}, {"sequence": "GATTTTAC", "binding signal": -0.0191}, {"sequence": "CTGGGTAC", "binding signal": 0.037}, {"sequence": "ACTTGCAG", "binding signal": -0.116}, {"sequence": "ACAACTAA", "binding signal": -0.114}, {"sequence": "ACCCCGTA", "binding signal": 0.209}, {"sequence": "AGTAGAAG", "binding signal": 0.0361}, {"sequence": "AGAGTTCG", "binding signal": -0.0999}, {"sequence": "GCTCAGAA", "binding signal": -0.0514}, {"sequence": "CCCTGCTC", "binding signal": 0.0522}, {"sequence": "CCGGTCTA", "binding signal": 0.129}, {"sequence": "CTGAGGGA", "binding signal": 0.0462}, {"sequence": "AACCAGAG", "binding signal": -0.242}, {"sequence": "CAGGACCC", "binding signal": -0.261}, {"sequence": "GGCGACAA", "binding signal": -0.251}, {"sequence": "GTATACAC", "binding signal": 0.371}, {"sequence": "AGCCAGGC", "binding signal": -0.197}, {"sequence": "ATAATCCG", "binding signal": 0.308}, {"sequence": "ATGGGCAG", "binding signal": -0.0749}, {"sequence": "AGGCAAGG", "binding signal": -0.274}, {"sequence": "AGAAAAAT", "binding signal": -0.124}, {"sequence": "CACTTATA", "binding signal": 0.00662}, {"sequence": "CTCCCATA", "binding signal": 0.0813}, {"sequence": "GAATGAAA", "binding signal": -0.157}, {"sequence": "CCCCCTTC", "binding signal": 0.104}, {"sequence": "CCCGATTC", "binding signal": 0.0319}, {"sequence": "GGCAAACA", "binding signal": -0.24}, {"sequence": "CAGACTCA", "binding signal": -0.153}, {"sequence": "CACTGATA", "binding signal": 0.404}, {"sequence": "AAGTTCGT", "binding signal": -0.333}, {"sequence": "TAGCACTA", "binding signal": 0.0499}, {"sequence": "ACCGACTC", "binding signal": 0.0656}, {"sequence": "ACAATAAT", "binding signal": 0.0945}, {"sequence": "AGTGCAAC", "binding signal": -0.0317}, {"sequence": "ACATTCCA", "binding signal": -0.253}, {"sequence": "CAAAGGTG", "binding signal": -0.00643}, {"sequence": "AGTCTAGC", "binding signal": -0.209}, {"sequence": "CACCCACC", "binding signal": -0.0957}, {"sequence": "CTCCACCC", "binding signal": 0.0237}, {"sequence": "CCGTAGCG", "binding signal": -0.199}, {"sequence": "AGGCCTCA", "binding signal": -0.186}, {"sequence": "GATAGAGC", "binding signal": -0.0719}, {"sequence": "ACGACAAT", "binding signal": -0.105}, {"sequence": "AGTGCGCC", "binding signal": -0.294}, {"sequence": "AGCCACAC", "binding signal": 0.119}, {"sequence": "CTCTTAGA", "binding signal": -0.133}, {"sequence": "GATGATCA", "binding signal": 0.315}, {"sequence": "ATTGGCCA", "binding signal": -0.171}, {"sequence": "CAATCGAA", "binding signal": 0.0197}, {"sequence": "AACGGCTC", "binding signal": 0.0218}, {"sequence": "ACCGTACC", "binding signal": 0.014}, {"sequence": "GTCAGCGA", "binding signal": -0.143}, {"sequence": "CCTACAAA", "binding signal": -0.111}, {"sequence": "AACAATCT", "binding signal": 0.0515}, {"sequence": "AAAACACA", "binding signal": -0.191}, {"sequence": "ACTGCCCA", "binding signal": -0.215}, {"sequence": "TATATAAA", "binding signal": 0.197}, {"sequence": "AAATATGT", "binding signal": -0.132}, {"sequence": "GATCAAGC", "binding signal": 0.312}, {"sequence": "CTGCCGCC", "binding signal": -0.208}, {"sequence": "ACATTGAT", "binding signal": 0.154}, {"sequence": "ATGTAAAC", "binding signal": 0.128}, {"sequence": "CATGTGAA", "binding signal": -0.165}, {"sequence": "ATCAATGC", "binding signal": 0.163}, {"sequence": "AAGAAGGG", "binding signal": 0.115}, {"sequence": "ACGCAGTA", "binding signal": 0.034}, {"sequence": "AGATCACA", "binding signal": 0.255}, {"sequence": "CCCACCGA", "binding signal": -0.0724}, {"sequence": "AAGATTTA", "binding signal": -0.0691}, {"sequence": "CCCTGTAC", "binding signal": 0.0945}, {"sequence": "GATCAAAC", "binding signal": 0.193}, {"sequence": "ATAGGTAG", "binding signal": 0.0875}, {"sequence": "CTGTTCGC", "binding signal": 0.00536}, {"sequence": "AGCGACCA", "binding signal": -0.328}, {"sequence": "CCAAATCA", "binding signal": -0.136}, {"sequence": "ATTTGATG", "binding signal": -0.0146}, {"sequence": "AAACGAGG", "binding signal": -0.124}, {"sequence": "CTTGGCGA", "binding signal": -0.0968}, {"sequence": "GCACGGTA", "binding signal": 0.122}, {"sequence": "AAGGTCCG", "binding signal": -0.0596}, {"sequence": "ACTTTGGA", "binding signal": -0.0601}, {"sequence": "ACGCCCGC", "binding signal": -0.102}, {"sequence": "ATCCAGGC", "binding signal": 0.123}, {"sequence": "AGCGTTAG", "binding signal": -0.0882}, {"sequence": "AAGCTTAA", "binding signal": -0.109}, {"sequence": "ATTGGGCC", "binding signal": -0.215}, {"sequence": "ACAACGCA", "binding signal": -0.108}, {"sequence": "AAGATTAG", "binding signal": 0.0218}]}]}
